Experimental data: patent publication US11814392B2, “Chromenopyridine-based compounds and methods of making and use thereof” (Rosalind Franklin University of Medicine and Science, priority 2020, dated 2023)

Tested on: NCI-H322M
Experiment: cells
Settings: 48 h
Description: The National Cancer Institute's Developmental Therapeutic preclinical 60 human cancer cell lines were used for an in vitro screen. […] The one-dose and five-dose experiments were conducted according to standard NCI protocols.
The human tumor cell lines of the cancer screening panel are grown in RPMI 1640 medium containing 5% fetal bovine serum and 2 mM L-glutamine. For a typical screening experiment, cells are inoculated into 96 well microtiter plates in 100 μL at plating densities ranging from 5,000 to 40,000 cells/well depending on the doubling time of individual cell lines. After cell inoculation, the microtiter plates are incubated at 37° C., 5% CO2, 95% air and 100% relative humidity for 24 h prior to addition of experimental drugs.
After 24 h, two plates of each cell line are fixed in situ with TCA, to represent a measurement of the cell population for each cell line at the time of drug addition (Tz). […]
Following drug addition, the plates are incubated for an additional 48 h at 37° C., 5% CO2, 95% air, and 100% relative humidity. […] Bound stain is subsequently solubilized with 10 mM trizma base, and the absorbance is read on an automated plate reader at a wavelength of 515 nm. […] Using the seven absorbance measurements [time zero, (Tz), control growth, (C), and test growth in the presence of drug at the five concentration levels (Ti)], the percentage growth is calculated at each of the drug concentrations levels. Percentage growth inhibition is calculated as: [(Ti−Tz)/(C−Tz)]×100 for concentrations for which Ti>/=Tz [(Ti−Tz)/Tz]×100 for concentrations for which Ti<Tz.
Three dose response parameters are calculated for each experimental agent. […] The drug concentration resulting in total growth inhibition (TGI) is calculated from Ti=Tz. […] Values are calculated for each of these three parameters if the level of activity is reached; however, if the effect is not reached or is exceeded, the value for that parameter is expressed as greater or less than the maximum or minimum concentration tested.

COc1ccc(SC2c3cc(OC)c(OC)cc3Oc3nc(N)c(C#N)c(N)c32)cc1 (stereo not drawn) [Compound 1, 2,4-diamino-7,8-dimethoxy-5-((4-methoxyphenyl)thio)-5H-chromeno[2,3-b]pyridine-3-carbonitrile] was tested, and the GI50 (Homo sapiens, NCI-H322M) was 1.55 µM, the CC50 (Homo sapiens, NCI-H322M, read-out: LC50) was 5.57 µM and the TGI (NCI-H322M (Non-small cell Lung), five-dose) was 2.94 µM.
